# This is one part of the list.
# T1: UNK ZnF1-6 (called full-length) (human, UniProt Q9C0B0 30-357)
# T1 sequence: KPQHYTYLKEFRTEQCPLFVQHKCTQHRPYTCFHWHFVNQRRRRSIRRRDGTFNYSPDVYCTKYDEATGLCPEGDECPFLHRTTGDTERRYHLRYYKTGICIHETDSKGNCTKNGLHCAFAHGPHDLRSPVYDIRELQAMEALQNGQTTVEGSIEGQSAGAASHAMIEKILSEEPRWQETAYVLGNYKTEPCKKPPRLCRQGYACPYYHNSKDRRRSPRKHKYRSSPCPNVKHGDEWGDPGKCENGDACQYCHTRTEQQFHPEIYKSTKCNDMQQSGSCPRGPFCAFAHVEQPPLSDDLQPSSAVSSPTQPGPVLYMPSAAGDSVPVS
# B1: chr17:66805439:66805473:+|3pUTR|ENSG00000154229|msi1_unk|FALSE|overlapping (ssRNA)
# RNA: GGGAGUUCUACAGUCCGACGAUCCACAAUUGUGCUCUAUUUGUGCAGGUUCUUGUUUCUAAUCCUCUUUUCUAAUUAAGUUUUAGCUGAAUCCCUUGCUUCUGUGCUUUCCCUCCCUGCACAUGGGCACUGUAUCAGAUAGAUCAACAGAGGAUUGAGCAUCA
# B2: chr1:96820056:96820157:+|3pUTR|ENSG00000117569|unk|total|mutant (ssRNA)
# RNA: GGGAGUUCUACAGUCCGACGAUCCCGUGUAAUAUAUAUAUAACCGCUCUAAUUAUAAAUACACUUUUACUCUGGAAAAAGCACCGACAUUGACAUAAGAGACAUUUAAAAACCAUUAUUUUCUCAUCUGUAAAAUGGAGAGAACAACAGAGGAUUGAGCAUCA
# B3: chr7:97024268:97024623:-|CDS|ENSG00000105880|control|control|control (ssRNA)
# RNA: GGGAGUUCUACAGUCCGACGAUCGGCGUGAACGGCUCCGCCGGGAGCUACCCAGCCAAAGCUUAUGCCGACUAUAGCUACGCUAGCUCCUACCACCAGUACGGCGGCGCCUACAACCGCGUCCCAAGCGCCACCAACCAGCCACAACAGAGGAUUGAGCAUCA
# B4: chr13:30280108:30280219:-|CDS|ENSG00000102781|unk|FALSE|bound_elsewhere (ssRNA)
# RNA: GGGAGUUCUACAGUCCGACGAUCUAAGGUUCGGCAGGAAUUAUUGGAGGAAUAUGAACAAGUUAAAAGUAUUGUCAGCACUUUAGAAAGUUUUAAAAUUGACAAGCCUCCAGAUUUCCCUGUGUCCUGUCAAGAUGAACCAUUCAACAGAGGAUUGAGCAUCA
# B5: chr6:43287355:43287456:+|3pUTR|ENSG00000146216|unk|FALSE|unique (ssRNA)
# RNA: GGGAGUUCUACAGUCCGACGAUCUAUGACUCCUGGUGCCCAGGCCCUGGGCCUGCUCCUUGCCACCAACCGAACCGUGAAUGUAGGGCCCCCAGCCUCACCUCUGCCCCAGGACCAACAACACCCUGGUUUGGAGCUGGGAGGCAACAGAGGAUUGAGCAUCA
# B6: ENSG00000070961:be:win_201|CDS|ENSG00000070961|bound_else_gene|NA|bound_elsewhere_windowed (ssRNA)
# RNA: GGGAGUUCUACAGUCCGACGAUCCAAUGAAGGUUUAAGUGGAAACCCUGCAGAUUUAGAAAGAAGAGAAGCAGUGUUUGGAAAGAAUUUUAUACCUCCUAAAAAGCCAAAAACCUUUCUUCAAUUAGUAUGGGAAGCAUUACACAACAGAGGAUUGAGCAUCA
# B7: chr21:25881503:25881610:-|3pUTR|ENSG00000142192|msi1_unk|FALSE|overlapping (ssRNA)
# RNA: GGGAGUUCUACAGUCCGACGAUCACAAACCCGUUUUAUGAUUUACUCAUUAUCGCCUUUUGACAGCUGUGCUGUAACACAAGUAGAUGCCUGAACUUGAAUUAAUCCACACAUCAGUAAUGUAUUCUAUCUCUCUUUACAUUUCAACAGAGGAUUGAGCAUCA
# B8: chr1:16124655:16124788:-|3pUTR|ENSG00000142627|msi1|total|mutant (ssRNA)
# RNA: GGGAGUUCUACAGUCCGACGAUCAGACUGUGAACUUGACUGGGUGAGACCCAAAGCGGUCCCUGUCCCUCCCGUGCCUUCUUCCGACCCUCGGGCCCCAUCCUCAUCCCUGACUGGCCAAACCCUUGCUUUCCUGGGCCUUUGCAACAGAGGAUUGAGCAUCA
# B9: chr1:226361101:226361261:-|3pUTR|ENSG00000143799|msi1|total|mutant (ssRNA)
# RNA: GGGAGUUCUACAGUCCGACGAUCUUUCUUGCCAGGCCGAUAAAACUGACACCGAGAAAAGGCUGGAGAGAGAUUCUGUUGCACCGACCCGUCCUAUGGAAAAAACCAAGCUUCGUCCGAAUGUCUGCCUUACUGGUUUCCCCACAACAGAGGAUUGAGCAUCA
# B10: ENSG00000123983:stop:overlap|stop_codon|ENSG00000123983|stop_codon|NA|stop_codon (ssRNA)
# RNA: GGGAGUUCUACAGUCCGACGAUCGUGAUGCCAGACGUUUUUUUGGGUGUGGGACUACAAUACUGGCAGAGUGGGAGCACCAUUAGUUUGCUGUGAAAUCAAAUUAAAAAACUGGGAGGAAGGUGGAUACUUUAAUACUGAUAACAACAGAGGAUUGAGCAUCA
# B11: chr11:61799969:61800070:-|3pUTR|ENSG00000149485|msi1|total|mutant (ssRNA)
# RNA: GGGAGUUCUACAGUCCGACGAUCUUCUUUGCCACCUUUUGGGUGUGGUGUCACCAGCCUGUUCCGCCAAGCCGCUUUGGGCACCGGCUGCCCAAUCUGAGCAAACACCAGUGAGGCUCUAUUGAGCCAAGACCAAGUCCUCAACAACAGAGGAUUGAGCAUCA
# B12: chr19:42216679:42217007:-|CDS|ENSG00000160570|control|control|control (ssRNA)
# RNA: GGGAGUUCUACAGUCCGACGAUCCUUUCUGCUGGAUGAGGCUCCUGGCGCCGCCGGAGGCUUAGCCCGGGCCCGCAGCGGCCUAGAGCUCCUGCUGGAGCUGGAGCGCCGCGGGCAGUGCGACGAGAGCAACCUGCGGCUGCUCAACAGAGGAUUGAGCAUCA
# B13: chr12:29502561:29502662:-|3pUTR|ENSG00000133687|msi1|FALSE|unique (ssRNA)
# RNA: GGGAGUUCUACAGUCCGACGAUCUCUUAACAAUGAUGUAUGGCACAAUUGGUUGGUUGAGGCUAUCAUUCCAUGAUUACAAAUAGGUGGUUAUGUGGGGUGGUUUUGCACUUGUGGCAAUUGGACUGCAAUUUGGCCUUAAAACAACAGAGGAUUGAGCAUCA
# B14: chr12:57478539:57478757:-|CDS|ENSG00000123329|control|control|control (ssRNA)
# RNA: GGGAGUUCUACAGUCCGACGAUCCUCCCAAGCAGGGCUCAGGCUAGCUCGGAGCAGCCUCCUCCACUUCCCCGCAAAAUGUGUAGGAGCGUCAGCACUGACAAUCUGAGCCCCAGCCUUCUGAAGCCUUUCCAGGAAGGACCACAACAGAGGAUUGAGCAUCA
# B15: chrX:152750421:152751363:-|CDS|ENSG00000268606|control|control|control (ssRNA)
# RNA: GGGAGUUCUACAGUCCGACGAUCCGACAAUCAGGUCAUGCCCAAGACAGGCCUCCUGAUAAUCGUCCUGGCCAUAAUCGCAAUAGAGGGCGACUGUGCCCCUGAGGAGAAAAUCUGGGAGGAGCUGAGUAUGUUGGAGGUGUUCAACAGAGGAUUGAGCAUCA
# B16: chr17:10306458:10306629:-|CDS|ENSG00000006788|control|control|control (ssRNA)
# RNA: GGGAGUUCUACAGUCCGACGAUCCCACCUGGAGCGGAUGAAGAAGAACCUGGAGCAGACGGUGAAGGACCUGCAGCACCGUCUAGAUGAGGCUGAACAACUGGCGCUGAAGGGCGGGAAGAAGCAGAUCCAGAAACUGGAGAACAACAGAGGAUUGAGCAUCA
# B17: chr15:42211119:42211220:-|3pUTR|ENSG00000103978|unk|FALSE|unique (ssRNA)
# RNA: GGGAGUUCUACAGUCCGACGAUCAGGUUACAUCUUGCAGAGGUUGUUUUGAGAAAAAAGGGCCCUUCUGAGUUAAGGAGCCAUAGUUCUAUCAAUGAUCAAAAGAAAAAAAAAAAAAGAGAAACUGUUACAGUAUGAUUCAGACAACAGAGGAUUGAGCAUCA
# B18: chr13:39012690:39014476:-|CDS|ENSG00000120685|control|control|control (ssRNA)
# RNA: GGGAGUUCUACAGUCCGACGAUCCCAGGGUCAUUAAUAGCCACCUCAUCUACCGCUGCCACCUCCACAUCUCUCCCUCAUCCUAGCUCAACGGCAGCUGUUCUCUCAGGGCUUUCUGCUUCAGCACCAGUCUCAGCAGCACCUCAACAGAGGAUUGAGCAUCA
# B19: chr10:43183422:43183523:+|CDS|ENSG00000169826|msi1|total|mutant (ssRNA)
# RNA: GGGAGUUCUACAGUCCGACGAUCUAAAGCCAUGAAUGAGGCCUCUCACUCCCACCUGGGAAUGCUGGUCUUCAGGGAGGAAACCGAGACGCAUCUUCAUAAACAGGCAUACAGGACAAACAGUGAAGCUGUUGGUUGAAAUCACAACAGAGGAUUGAGCAUCA
# B20: chr2:70277881:70277982:+|3pUTR|ENSG00000116005|msi1|total|mutant (ssRNA)
# RNA: GGGAGUUCUACAGUCCGACGAUCACCUGAGGGAGAACUUAAAGACAUCUCCGUUGGGGAGCCGUCCUUUUGAAUUUUACAGCCCGAUAUAAUCUUCAGUCAGAUAAAAUUUAUGGGAGCUGGUGUCUUAUGCCUGACUCUCCGCAACAGAGGAUUGAGCAUCA
# B21: ENSG00000109805:stop:overlap|stop_codon|ENSG00000109805|stop_codon|NA|stop_codon (ssRNA)
# RNA: GGGAGUUCUACAGUCCGACGAUCCCGCAGCACUAGAAAAAAGUAAACUUAACCUUGCCCAAUUUCUCAAUGAAGAUCUAAGUUAGGAAAGACGAUGGAGGUGGAAUCCUUUAAGAUUAUGUCCAGUUAUUUGCUUUAAUAAAGCAACAGAGGAUUGAGCAUCA
# B22: chr11:9429001:9429102:+|CDS|ENSG00000205339|msi1_unk|total|mutant (ssRNA)
# RNA: GGGAGUUCUACAGUCCGACGAUCGGUACUUCACUAUUUUUGUGAAGUGAAGUUCAAAAGUGAUCAGAACCUUCAAACAGCCUCCGAGCUAACAAGAAGAUGUCUGAUUGAUGACCGAGAAAUGCCUGUGAAAGUGGAAGCUGCCAACAGAGGAUUGAGCAUCA
# Target: T1, UNK ZnF1-6 (called full-length)
# Experiment: nsRBNS (natural sequence RNA bind-n-seq); RBNS binding buffer (assumed for nsRBNS): 25 mM Tris pH 7.5, 150 mM KCl, 3 mM MgCl2, 0.01% Triton X-100, 500 ug/ml BSA, 20 U/ml SUPERase-In, 4 C; UNK is unkempt and MSI1 is Musashi-1; names of the RNAs are library labels; protein concentration not given here; high values mean tight binding
row,Binder,binding signal
1,B1,1.41 enrichment R
2,B2,0.588 enrichment R
3,B3,0.607 enrichment R
4,B4,0.597 enrichment R
5,B5,0.933 enrichment R
6,B6,1.02 enrichment R
7,B7,0.517 enrichment R
8,B8,1.06 enrichment R
9,B9,0.526 enrichment R
10,B10,1.28 enrichment R
11,B11,0.477 enrichment R
12,B12,0.347 enrichment R
13,B13,0.497 enrichment R
14,B14,0.628 enrichment R
15,B15,0.71 enrichment R
16,B16,0.803 enrichment R
17,B17,0.762 enrichment R
18,B18,1.28 enrichment R
19,B19,0.583 enrichment R
20,B20,0.508 enrichment R
21,B21,0.92 enrichment R
22,B22,0.367 enrichment R

# Source: paper PMC12136788
